Reference: the supplement of paper PMC10369915
Some of the results follow. Rule as the data show it: active = 3.2 or more and inactive = the rest. Only a few entries rise above the background.

What was measured:
Experiment in all cases: enrichment score (SH2-bound / input frequency) (ratio); bacterial display of known human phosphotyrosine sites (pTyr-Var adds point mutants) read by sequencing; higher = stronger binding; tyrosines were phosphorylated by kinases first
Conditions in all cases: peptide library: pTyr-Var
SHP2 C-SH2 domain E139D = biological target: SHP2 C-SH2 domain E139D
[1] = biological target: SHP2 C-SH2 domain wild-type
SHP2 N-SH2 domain L43F = biological target: SHP2 N-SH2 domain L43F
SHP2 N-SH2 domain T42A = biological target: SHP2 N-SH2 domain T42A
SHP2 N-SH2 domain T52S = biological target: SHP2 N-SH2 domain T52S
[2] = biological target: SHP2 N-SH2 domain wild-type
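Also: displayed peptides selected on beads carrying the immobilized SH2 domain, with library peptides lacking any tyrosine serving as negative controls.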

Row | Binder | enrichment score (SHP2 C-SH2 domain E139D) | enrichment score [1] | enrichment score (SHP2 N-SH2 domain L43F) | enrichment score (SHP2 N-SH2 domain T42A) | enrichment score (SHP2 N-SH2 domain T52S) | enrichment score [2]
1 | WSQAMYPDLGP [STARD8_Y330_R327Q] | inactive: 0.866 | inactive: 0.835 | inactive: 0.915 | inactive: 0.731 | inactive: 0.783 | inactive: 0.76
2 | VEDPEYAVTQL [STOML2_Y124] | inactive: 0.711 | inactive: 0.62 | inactive: 0.746 | inactive: 0.686 | inactive: 0.734 | inactive: 0.645
3 | SEKISYVYMKR [SSX7_Y48_L43S] | inactive: 0.778 | inactive: 1.57 | inactive: 0.791 | inactive: 1.2 | inactive: 0.876 | inactive: 0.712
4 | VEDPEYAVTQP [STOML2_Y124_L129P] | inactive: 0.404 | inactive: 0.508 | inactive: 0.55 | inactive: 0.526 | inactive: 0.667 | inactive: 0.544
5 | KEAALYPHLLP [SQSTM1_Y383_P387L] | inactive: 1.01 | inactive: 0.965 | inactive: 1.07 | inactive: 0.845 | inactive: 0.778 | inactive: 1.12
6 | SASRSYSRSRS [SRRM4_Y549] | inactive: 0.228 | inactive: 0.25 | inactive: 0.306 | inactive: 0.28 | inactive: 0.239 | inactive: 0.32
7 | NLTVNYKKNLI [SQOR_Y259] | inactive: 0.569 | inactive: 0.636 | inactive: 0.654 | inactive: 0.722 | inactive: 0.679 | inactive: 1.18
8 | QSMEPYTKQQL [STAT3_Y640_V637M] | inactive: 0.605 | inactive: 0.455 | inactive: 0.583 | inactive: 0.594 | inactive: 0.593 | inactive: 0.69
9 | KEAVLYPHLPP [SQSTM1_Y383_A381V] | inactive: 0.916 | inactive: 0.801 | inactive: 0.824 | inactive: 0.655 | inactive: 0.858 | inactive: 1.03
10 | WSRAMYPDLGP [STARD8_Y330] | inactive: 0.898 | inactive: 0.631 | inactive: 0.655 | inactive: 0.585 | inactive: 0.654 | inactive: 0.86
11 | TDTAAYEERVR [SPTB_Y474] | inactive: 0.465 | inactive: 0.371 | inactive: 0.298 | inactive: 0.514 | inactive: 0.5 | inactive: 0.541
12 | QQLVAYFSKHT [SRC_Y232_A237T_YF] | inactive: 1.85 | inactive: 1.77 | inactive: 1.77 | inactive: 1.39 | inactive: 2 | inactive: 1.9
13 | LDPIQYSKHPP [SQSTM1_Y433_T430P] | inactive: 0.973 | inactive: 0.912 | inactive: 1.12 | inactive: 0.76 | inactive: 0.897 | inactive: 1.13
14 | IDGLEYLHSQG [STK11_Y166] | inactive: 0.914 | inactive: 0.816 | inactive: 1.03 | inactive: 0.737 | inactive: 1 | inactive: 1.04
15 | LLKNMYLMLDN [STAT1_Y203_K201N] | inactive: 1.61 | inactive: 2.21 | inactive: 2.04 | active: 4.6 | inactive: 2.24 | inactive: 1.69
16 | SVCPDYDLCSI [SQSTM1_Y148_V153I] | inactive: 1.34 | inactive: 1.03 | inactive: 1.29 | inactive: 1.07 | inactive: 1.05 | inactive: 1.09
17 | VPDANYTSDEE [STK33_Y439] | inactive: 0.397 | inactive: 0.513 | inactive: 0.492 | inactive: 0.459 | inactive: 0.469 | inactive: 0.54
18 | PLKFLYPNIDR [STAT1_Y668_K673R_YF] | inactive: 1.38 | inactive: 1.65 | inactive: 1.54 | inactive: 1.75 | inactive: 1.65 | inactive: 1.31
19 | QSVEPYTKQQL [STAT3_Y640] | inactive: 0.528 | inactive: 0.408 | inactive: 0.492 | inactive: 0.54 | inactive: 0.516 | inactive: 0.377

Row | Binder | enrichment score (SHP2 C-SH2 domain E139D) | enrichment score [1] | enrichment score (SHP2 N-SH2 domain L43F) | enrichment score (SHP2 N-SH2 domain T42A) | enrichment score (SHP2 N-SH2 domain T52S) | enrichment score [2]
20 | VGSEDYGWDLT [SPTAN1_Y1792_R1794W] | inactive: 0.561 | inactive: 0.623 | inactive: 0.775 | inactive: 0.519 | inactive: 0.605 | inactive: 0.606
21 | IDDLEYLHSQG [STK11_Y166_G163D] | inactive: 0.755 | inactive: 0.631 | inactive: 0.482 | inactive: 0.602 | inactive: 0.713 | inactive: 0.665
22 | LGEGSYGKVKE [STK11_Y60] | inactive: 0.805 | inactive: 0.966 | inactive: 0.695 | inactive: 0.61 | inactive: 0.587 | inactive: 0.84
23 | PKGTGCIKTEL [STAT1_Y701_Y701C] | inactive: 1.27 | inactive: 1.14 | inactive: 0.828 | inactive: 0.733 | inactive: 0.894 | inactive: 0.93
24 | DLQDEYDFKRK [STAT1_Y170_C174R] | inactive: 0.501 | inactive: 0.655 | inactive: 0.626 | inactive: 0.522 | inactive: 0.606 | inactive: 0.618
25 | QGLMPYGQPRP [SRRT_Y798] | inactive: 0.772 | inactive: 0.637 | inactive: 0.639 | inactive: 0.549 | inactive: 0.688 | inactive: 0.835
26 | IPPRRYFCSGV [STAMBP_Y36_R38C] | inactive: 0.504 | inactive: 0.381 | inactive: 0.428 | inactive: 0.402 | inactive: 0.457 | inactive: 0.44
27 | EDDIIYTQDFT [STK11_Y362] | inactive: 0.689 | inactive: 0.476 | inactive: 0.62 | inactive: 0.627 | inactive: 0.641 | inactive: 0.617
28 | MNKNAYHNVTT [ST3GAL6_Y306_A311T] | inactive: 0.654 | inactive: 0.587 | inactive: 0.502 | inactive: 0.594 | inactive: 0.585 | inactive: 0.757
29 | LLKKVYLMLDN [STAT1_Y203_M202V] | inactive: 1.59 | inactive: 1.35 | inactive: 1.44 | inactive: 1.44 | inactive: 1.29 | inactive: 1.6
30 | ESMLRYDVYGG [STOX1_Y607_E608D] | inactive: 0.989 | inactive: 0.707 | inactive: 0.736 | inactive: 0.583 | inactive: 0.782 | inactive: 0.924
31 | QSLEPYTKQQL [STAT3_Y640_V637L] | inactive: 0.478 | inactive: 0.54 | inactive: 0.696 | inactive: 0.54 | inactive: 0.628 | inactive: 1.39
32 | PLKFLYPNIDK [STAT1_Y668_YF] | inactive: 1.44 | inactive: 1.49 | inactive: 1.49 | inactive: 1.37 | inactive: 1.45 | inactive: 1.63
33 | DLQDEYDFKCK [STAT1_Y170] | inactive: 0.791 | inactive: 0.613 | inactive: 0.722 | inactive: 0.71 | inactive: 0.664 | inactive: 0.494
34 | KEAALYPHLPP [SQSTM1_Y383] | inactive: 0.687 | inactive: 0.826 | inactive: 0.766 | inactive: 0.534 | inactive: 0.797 | inactive: 0.905
35 | QQLVAYFSKHA [SRC_Y232_YF] | inactive: 1.09 | inactive: 1.14 | inactive: 0.948 | inactive: 1.06 | inactive: 1.13 | inactive: 1.24
36 | ESMLRYEVYGG [STOX1_Y607] | inactive: 0.731 | inactive: 0.792 | inactive: 0.646 | inactive: 0.643 | inactive: 0.861 | inactive: 0.825
37 | FVSAAYVKKLD [SPTAN1_Y1020_P1017S] | inactive: 0.991 | inactive: 0.601 | inactive: 0.833 | inactive: 0.697 | inactive: 0.612 | inactive: 0.907
